Screen size: about 370,000 compounds; about 150 (0.041%) were called active. Inconclusive results, whose numbers are uncertain, are shown with a selection of clear calls. The call rests on the fitted dose curve; in most records, active means well fitted inhibition curve with a large enough effect; inconclusive means small, poorly fitted or top-dose-only effect; inactive means flat fitted curve, though single readings scatter. No potency is given beside an inconclusive call; the fits are too rough.
What follows are compounds tested against Beta-lactamase (Escherichia coli (strain K12)) (UniProt P00811) (assay: qHTS Inhibitors of AmpC Beta-Lactamase (assay with detergent)). Details: AmpC hydrolysis of nitrocefin, absorbance 480 nm, 0.01% Triton; activity change, negative = inhibition: at 114 µM (top of the series).
Method in brief: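 AmpC (5.3 nM in the dispensed reagent) in 20 mM phosphate pH 7.0 with 0.01% (detergent screen) or 0.0001% Triton X-100 was preincubated with compounds for 15 min at room temperature. Nitrocefin was then added from an 800 uM solution, and hydrolysis was followed at 480 nm.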
Further: nearly all actives have a fitted effect of over 25% in size.
Potency means the concentration at half of the fitted maximal effect; tags describe the fitted curve by direction and shape.
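Wherever activity change, negative = inhibition is given: 0% = no-compound wells and -100% = no-enzyme wells.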

UniProt P00811, sequence (P00811 whole entry, looked up): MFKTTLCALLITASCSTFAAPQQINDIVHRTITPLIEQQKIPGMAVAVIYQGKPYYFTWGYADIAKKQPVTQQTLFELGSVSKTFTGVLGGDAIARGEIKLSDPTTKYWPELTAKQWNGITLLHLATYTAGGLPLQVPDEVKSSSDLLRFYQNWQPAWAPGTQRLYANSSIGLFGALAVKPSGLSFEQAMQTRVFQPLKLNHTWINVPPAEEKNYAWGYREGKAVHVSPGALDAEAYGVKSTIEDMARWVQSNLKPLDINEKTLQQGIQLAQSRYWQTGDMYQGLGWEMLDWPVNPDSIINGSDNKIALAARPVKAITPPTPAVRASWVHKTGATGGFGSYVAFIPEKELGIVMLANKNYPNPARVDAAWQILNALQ

Row | Compound | Potency | activity change, negative = inhibition
1 | CCOC(=O)CSc1c(-c2ccccc2)c2cc(Cl)ccc2[nH]c1=O | inconclusive [inhibitor, partial curve] | 
2 | Cn1c(CNc2nc(-c3ccccc3)cs2)nnc1SCC(=O)c1ccccc1 | inconclusive [inhibitor, full curve, poor fit] | 
3 | CC1Sc2ccc(S(=O)(=O)N3CCC(C(=O)NCc4ccccc4)CC3)cc2NC1=O (stereo not given) |  | inactive: -6.72%
4 | O=C(NCC(=O)N1CCN(c2ccccc2)CC1)c1ccco1 | inconclusive [inhibitor, partial curve, poor fit] | 
5 | CCc1cc(=O)oc2cc(C)cc(OCC(=O)NCc3ccccn3)c12 | inconclusive [inhibitor, partial curve, poor fit] | 
6 | COc1ccc(OC)c(S(=O)(=O)N2CCCC(C(=O)NCc3ccco3)C2)c1 (stereo not given) | inconclusive [inhibitor, full curve, poor fit] | 
7 | CC1(C)C(C(=O)O)N2C(=O)C(NC(=O)Cc3ccccc3)C2S1=O (stereo not given) | inconclusive [inhibitor, full curve, poor fit] | 
8 | Cc1ccc(N(CC(O)CN(C)C)S(=O)(=O)c2ccccc2)cc1 (stereo not given) | inconclusive [inhibitor, full curve, poor fit] | 
9 | O=C(NC1CC2CCCC(C1)N2Cc1ccccc1)c1ccc([N+](=O)[O-])cc1 (stereo not given) | inconclusive [inhibitor, partial curve] | 
10 | COCCNC(=O)CCn1nc(-c2ccc(C)cc2)c2ccccc2c1=O | inconclusive [inhibitor, single point] | 
11 | CC(=O)c1ccc(NC(=O)C2CCCN(S(=O)(=O)c3c(C)[nH]c(=O)[nH]c3=O)C2)cc1 (stereo not given) | inconclusive [inhibitor, full curve, poor fit] | 
12 | COc1cc2nc(N3CCNCC3)nc(N)c2cc1OC | inconclusive [inhibitor, full curve] | 
13 | COc1ccc(Cn2c(O)c(/C=N/NC(=O)c3ccccc3)c(=O)[nH]c2=O)cc1 | inconclusive [inhibitor, single point] | 
14 | CC(C)Sc1nc2c(c(=O)[nH]c(=O)n2C)n1C | inconclusive [inhibitor, full curve, poor fit] | 
15 | CCCc1nc(SCC(=O)Nc2ccc(N3CCOCC3)cc2)c2ccccc2n1 | inconclusive [inhibitor, single point] | 
16 | CC1CCN(S(=O)(=O)c2ccccc2[N+](=O)[O-])CC1 | inconclusive [inhibitor, full curve] | 
17 | COc1ccccc1N1CCN(CCc2ccccc2)CC1 | inconclusive [inhibitor, full curve, poor fit] | 
18 | O=C(Cc1ccc(-c2ccccc2)cc1)NNC(=S)NCc1ccco1 |  | inactive: 1.99%
19 | Cc1ccc(-c2ccc(CO)o2)cc1N | inconclusive [inhibitor, single point] | 
20 | NC(=O)c1ccccc1NC(=O)/C=C/C(=O)O |  | inactive: -1.44%

Row | Compound | Potency | activity change, negative = inhibition
21 | CCCCn1c(=O)c(C(=O)Nc2ccsc2C(=O)OC)c(O)c2ccccc21 | inconclusive [inhibitor, partial curve, poor fit] | 
22 | CN(Cc1ccon1)C(=O)CC1C(=O)NCCN1Cc1ccc(Cl)c(F)c1 (stereo not given) |  | inactive: 2.2%
23 | Cc1ccc(N(CC(=O)Nc2ccc(C)cc2C)S(=O)(=O)N2CCCC2)cc1 | inconclusive [inhibitor, full curve] | 
24 | Cc1ccc(CNC(=O)CNS(=O)(=O)c2ccc3c(c2)C(C)(C)C(=O)N3C)cc1 | inconclusive [inhibitor, full curve, poor fit] | 
25 | O=C(Nc1cccc(C(=O)N2CCCCC2)c1)c1ccc(Cl)cc1 |  | inactive: -0.236%
26 | COc1cc(C(=O)Nc2c(C)cc(C)cc2C)c([N+](=O)[O-])cc1OC | inconclusive [inhibitor, partial curve, poor fit] | 
27 | Cc1ccc(NC(=O)Cn2nc(C(F)(F)F)c3c2CCC3)cc1 | inconclusive [inhibitor, single point] | 
28 | Cc1ccc(C(=O)Nc2cccc(N3C(=O)C4CCC(C)CC4C3=O)c2)cc1 (stereo not given) | inconclusive [inhibitor, full curve, poor fit] | 
29 | O=C(COc1ccc(S(=O)(=O)Nc2ccccc2)cc1)NCc1cccnc1 | inconclusive [inhibitor, partial curve, poor fit] | 
30 | CCOc1ccc(C2C(C(=O)c3cccs3)=C(O)C(=O)N2Cc2cccnc2)cc1OC (stereo not given) |  | inactive: 6.19%
31 | CCCCn1nc2cc(C(=O)NCC34CC5CC(CC(C5)C3)C4)ccc2c1OCC |  | inactive: -4.84%
32 | CCCCNC(=O)C(c1ccc(-c2ccccc2)cc1)N(CCN1CCOCC1)C(=O)CCCCCN1C(=O)NC(c2ccc([N+](=O)[O-])cc2)C(C(=O)OCc2ccccc2)=C1C (stereo not given) | inconclusive [inhibitor, partial curve, poor fit] | 
33 | CC(CN1CCCCC1)C(=O)NNC(=O)C12CC3CC(CC(C3)C1)C2 (stereo not given) |  | inactive: 7.41%
34 | Cc1nn(C)c(C)c1C1Nc2ccccc2C(=O)N1O (stereo not given) | inconclusive [inhibitor, single point] | 
35 | O=C(CCN1CCN(c2ccccc2)CC1)N/N=C/c1ccc([N+](=O)[O-])o1 |  | inactive: -7.47%
36 | Cc1ccc(-n2c(=O)c3sccc3n(CC(=O)NC3CCCCC3)c2=O)cc1 | inconclusive [inhibitor, partial curve, poor fit] | 
37 | CS(=O)(=O)c1ccc(-c2nnc(NC(=O)c3ccc(S(=O)(=O)N4CCCC4)cc3)o2)cc1 | inconclusive [inhibitor, partial curve] | 
38 | Cc1ccc(S(=O)(=O)CCC(=O)OCC(=O)Nc2ncc(Cl)cc2Cl)cc1 | inconclusive [inhibitor, full curve, poor fit] | 
39 | CC1Cc2cc(-c3csc(N)n3)ccc2O1 (stereo not given) | inconclusive [inhibitor, full curve, poor fit] | 
40 | c1ccc(Cn2c(CSc3nnnn3-c3ccccc3)nc3ccccc32)cc1 | inconclusive [inhibitor, full curve, poor fit] | 

— PubChem BioAssay AID485294 (National Center for Advancing Translational Sciences (NCATS), 2010)
